Data reported in the supplement of paper PMC4967469.

How the values were obtained:
Test in all cases: Viability of human cancer cell lines after 72 h of drug (GDSC screen)
S-Trityl-L-cysteine = compound: N[C@@H](CSC(c1ccccc1)(c1ccccc1)c1ccccc1)C(=O)O [S-Trityl-L-cysteine]; conditions: top dose 5.12 µM; top dose inferred
Protocol: (§1)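 Human cancer cell lines in 384-well plates, medium with 10% serum, drug for 72 h over a 256-fold dose range (nine 2-fold or five 4-fold steps up to the top dose). Adherent lines were fixed and stained with the nucleic acid dye Syto60, suspension lines read with resazurin; signal relative to control wells, capped at 0 and 100%. One two-parameter sigmoid per drug and line, fitted in a mixed model over all curves with the slope shared within a line.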

Erlotinib = compound: C#Cc1cccc(Nc2ncnc3cc(OCCOC)c(OCCOC)cc23)c1 [Erlotinib]; conditions: top dose 2 µM
Protocol: as §1

WHI-P97 = compound: COc1cc2ncnc(Nc3cc(Br)c(O)c(Br)c3)c2cc1OC [WHI-P97]; conditions: top dose 10.24 µM; top dose inferred
Protocol: as §1

Vinorelbine = compound: CCC1=C[C@@H]2CN(C1)Cc1c([nH]c3ccccc13)[C@@](C(=O)OC)(c1cc3c(cc1OC)N(C)[C@H]1[C@@](O)(C(=O)OC)[C@H](OC(C)=O)[C@]4(CC)C=CCN5CC[C@]31[C@@H]54)C2 [Vinorelbine]; conditions: top dose 0.064 µM; top dose inferred
Protocol: as §1

Phenformin = compound: N=C(N)NC(=N)NCCc1ccccc1 [Phenformin]; conditions: top dose 4000 µM; top dose inferred
Protocol: as §1

AG-014699 = compound: CNCc1ccc(-c2[nH]c3cc(F)cc4c3c2CCNC4=O)cc1 [AG-014699]; conditions: top dose 5 µM; top dose inferred
Protocol: as §1

XL-184 = compound: COc1cc2nccc(Oc3ccc(NC(=O)C4(C(=O)Nc5ccc(F)cc5)CC4)cc3)c2cc1OC [XL-184]; conditions: top dose 5.12 µM; top dose inferred
Protocol: as §1

QL-XI-92 = compound: C=CC(=O)Nc1cc(NC(=O)c2ccc(C)c(NC(=O)c3ccno3)c2)cc(C(F)(F)F)c1 [QL-XI-92]; conditions: top dose 10.24 µM; top dose inferred
Protocol: as §1

EHT 1864 = compound: O=c1cc(CN2CCOCC2)occ1OCCCCCSc1ccnc2cc(C(F)(F)F)ccc12 [EHT 1864]; conditions: top dose 10 µM; top dose inferred
Protocol: as §1

NU-7441 = compound: O=c1cc(N2CCOCC2)oc2c(-c3cccc4c3sc3ccccc34)cccc12 [NU-7441]; conditions: top dose 2 µM; top dose inferred
Protocol: as §1

Cell Line | AUC (S-Trityl-L-cysteine) | IC50 (S-Trityl-L-cysteine) | AUC (Erlotinib) | IC50 (Erlotinib) | AUC (WHI-P97) | IC50 (WHI-P97) | AUC (Vinorelbine) | IC50 (Vinorelbine) | AUC (Phenformin) | IC50 (Phenformin) | AUC (AG-014699) | IC50 (AG-014699) | AUC (XL-184) | IC50 (XL-184) | AUC (QL-XI-92) | IC50 (QL-XI-92) | AUC (EHT 1864) | IC50 (EHT 1864) | AUC (NU-7441) | IC50 (NU-7441)
COLO-829 (melanoma, adherent) | 0.959 | > 5.12 µM | 0.953 | > 2 µM | 0.968 | > 10.2 µM | 0.238 | 0.00047 µM | 0.97 | > 4000 µM | 0.953 | > 5 µM | 0.937 | > 5.12 µM | 0.957 | > 10.2 µM | 0.934 | > 10 µM | – | –
CTB-1 (B-cell lymphoma, suspension) | 0.8 | 3.62 µM | 0.941 | > 2 µM | 0.979 | > 10.2 µM | 0.676 | 0.0149 µM | 0.759 | 1890 µM | 0.964 | > 5 µM | 0.979 | > 5.12 µM | 0.619 | 1.54 µM | 0.947 | > 10 µM | 0.948 | > 2 µM
DSH1 (bladder, adherent) | 0.866 | 4.23 µM | 0.97 | > 2 µM | 0.969 | > 10.2 µM | 0.485 | 0.00365 µM | 0.986 | > 4000 µM | 0.881 | 4.86 µM | 0.97 | > 5.12 µM | 0.985 | > 10.2 µM | 0.796 | 4.44 µM | 0.989 | > 2 µM
LB996-RCC (kidney, adherent) | 0.806 | 3.12 µM | 0.541 | 0.164 µM | 0.976 | > 10.2 µM | 0.948 | > 0.064 µM | 0.96 | > 4000 µM | 0.873 | > 5 µM | 0.961 | > 5.12 µM | 0.983 | > 10.2 µM | 0.821 | 7.08 µM | 0.935 | > 2 µM
NCI-H716 (large intestine, suspension) | 0.978 | > 5.12 µM | 0.981 | > 2 µM | 0.971 | > 10.2 µM | 0.978 | > 0.064 µM | 0.75 | 1620 µM | 0.952 | > 5 µM | 0.759 | 2.23 µM | 0.944 | > 10.2 µM | – | – | – | –
NCI-H748 (small cell lung carcinoma, suspension) | 0.811 | 3.7 µM | 0.98 | > 2 µM | 0.911 | > 10.2 µM | 0.79 | 0.0377 µM | 0.903 | > 4000 µM | – | – | 0.945 | > 5.12 µM | 0.822 | 8.27 µM | – | – | – | –
NCI-H2171 (small cell lung carcinoma, suspension) | 0.953 | > 5.12 µM | 0.991 | > 2 µM | 0.992 | > 10.2 µM | 0.895 | 0.0597 µM | 0.849 | 2410 µM | – | – | 0.991 | > 5.12 µM | 0.863 | 7.01 µM | – | – | – | –
OCI-AML2 (acute myeloid leukaemia, suspension) | 0.649 | 0.74 µM | 0.991 | > 2 µM | 0.97 | > 10.2 µM | 0.644 | 0.00896 µM | 0.43 | 169 µM | 0.995 | > 5 µM | 0.989 | > 5.12 µM | 0.915 | 8.2 µM | 0.952 | > 10 µM | 0.995 | > 2 µM
SCC-3 (B-cell lymphoma, suspension) | 0.681 | 0.875 µM | 0.995 | > 2 µM | 0.997 | > 10.2 µM | 0.754 | 0.0166 µM | 0.914 | 2880 µM | – | – | 0.96 | > 5.12 µM | 0.817 | 3.83 µM | – | – | – | –
SIG-M5 (acute myeloid leukaemia, suspension) | 0.675 | 0.858 µM | 0.976 | > 2 µM | 0.911 | 8.01 µM | 0.402 | 0.00231 µM | 0.512 | 267 µM | – | – | 0.841 | 2.35 µM | 0.828 | 4.3 µM | – | – | – | –
SU-DHL-8 (B-cell lymphoma, suspension) | 0.659 | 0.854 µM | 0.949 | > 2 µM | 0.988 | > 10.2 µM | 0.663 | 0.011 µM | 0.123 | 17.7 µM | 0.988 | > 5 µM | 0.883 | 4.84 µM | 0.691 | 2.11 µM | – | – | 0.988 | > 2 µM
TC-71 (Ewing sarcoma, adherent) | 0.863 | 3.26 µM | 0.992 | > 2 µM | 0.887 | 8.11 µM | 0.815 | 0.0278 µM | 0.748 | 1100 µM | 0.948 | > 5 µM | 0.915 | > 5.12 µM | 0.985 | > 10.2 µM | 0.93 | > 10 µM | 0.981 | > 2 µM
TE-10 (oesophagus, adherent) | 0.645 | 0.796 µM | 0.922 | > 2 µM | 0.934 | > 10.2 µM | 0.516 | 0.00441 µM | 0.884 | > 4000 µM | 0.934 | > 5 µM | 0.945 | > 5.12 µM | 0.976 | > 10.2 µM | 0.987 | > 10 µM | 0.964 | > 2 µM
TE-15 (oesophagus, suspension) | 0.646 | 0.86 µM | 0.88 | > 2 µM | 0.647 | 1.73 µM | 0.506 | 0.00415 µM | 0.494 | 241 µM | 0.976 | > 5 µM | 0.879 | > 5.12 µM | 0.911 | > 10.2 µM | 0.974 | > 10 µM | 0.967 | > 2 µM

A lower IC50 marks a more sensitive line; fits outside the tested doses are given as limits. For AUC the same curve is integrated over the 256-fold range of doses and scaled to a fraction; values near 1 show little effect. For some assays here: Where the top dose is marked as inferred, it was calculated from the reported fits.
